# Results as given in the supplement of paper PMC9446081.
# Among all 39,000 compounds or so, about 220 (0.56%) showed activity. The list shows a part of the results.
# Test system: Escherichia coli K-12 BW25113
# Assay: relative growth (OD600 normalised to plate interquartile mean) (fraction); higher = less growth inhibition, active = 0.2 or less
# Settings: 50 µM; LB; incubation time: overnight (16-24 h)
# 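Also: static incubation at 37 °C against the wild-type strain, values averaged over two biological replicates.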
row,Structure (SMILES),relative growth
1,O=C(C[C@@H]1C[C@H]2c3cc(NC(=O)c4ccc5c(c4)OCO5)ccc3O[C@H]2[C@H](CO)O1)NCc1cccnc1,inactive: 1.01
2,Cc1noc(C)c1NC(=O)N(C)C[C@@H]1Oc2ccc(NC(=O)c3ccncc3)cc2CC(=O)N([C@H](C)CO)C[C@@H]1C,inactive: 0.98
3,COc1ccc(NC(=O)Nc2cccc3c2O[C@H](CN(C)CC2CCCCC2)[C@H](C)CN([C@@H](C)CO)C3=O)cc1,inactive: 1.02
4,Cc1noc(C)c1NC(=O)N(C)C[C@@H]1Oc2ccc(NS(=O)(=O)c3cn(C)cn3)cc2CC(=O)N([C@@H](C)CO)C[C@@H]1C,inactive: 0.997
5,CC(C)CN1C(=O)[C@@]2(c3ccc([N+](=O)[O-])cc3)CC(=O)N(CC3C4CC5CC(C4)CC3C5)[C@@H]2c2ccc(CO)cc21 (stereo partly specified),inactive: 1
6,CNC(=O)CN1C(=O)c2ccccc2S1(=O)=O,inactive: 0.937
7,O=C(NC(CO)C(O)c1ccc([N+](=O)[O-])cc1)C(Cl)Cl (stereo unspecified),active: 0.0428
8,CC(C)(Sc1ccncc1-c1ccc(C#N)c2ccccc12)C(=O)O,inactive: 1.01
9,C[C@@H]1CN([C@H](C)CO)C(=O)c2cc(C#CC(C)(C)O)cnc2O[C@H]1CN(C)C(=O)CN(C)C,inactive: 0.991
10,CCN1C(=O)C(N=O)N(CC)C1=S (stereo unspecified),inactive: 0.995
11,Cc1noc(C)c1NC(=O)Nc1ccc2c(c1)C(=O)N([C@H](C)CO)C[C@H](C)[C@H](CN(C)C(=O)Nc1ccccc1)OCCCC[C@@H](C)O2,inactive: 0.991
12,C[C@@H]1CCCCO[C@@H](CN(C)C(=O)Nc2ccc3c(c2)OCO3)[C@@H](C)CN([C@H](C)CO)C(=O)c2cc(NS(=O)(=O)c3ccccc3)ccc2O1,inactive: 1.01
13,O=C(O)CCCNC(=O)c1cncc(O)c1,inactive: 0.99
14,COc1ccc(NC(=O)N(C)C[C@@H]2Oc3ccc(NC(=O)CCCCCC(=O)Nc4ccccc4N)cc3CC(=O)N([C@@H](C)CO)C[C@H]2C)cc1,inactive: 0.976
15,C[C@@H]1CN([C@H](C)CO)C(=O)Cc2cc(NC(=O)NC3CCCCC3)ccc2O[C@H]1CN(C)Cc1ccc(Oc2ccccc2)cc1,inactive: 1.07
16,CCN(CC)CCOCCOC(=O)C(CC)(CC)c1ccccc1.O=C(O)CC(O)(CC(=O)O)C(=O)O,inactive: 1.1
17,c1cc(CNC2CCCC2)cs1,inactive: 0.968
18,COc1ccc(NC(=O)N(C)C[C@H]2Oc3ccc(NS(=O)(=O)c4c(C)noc4C)cc3CC(=O)N([C@H](C)CO)C[C@H]2C)cc1,inactive: 0.95
19,C[C@H]1CN([C@@H](C)CO)C(=O)c2cc(NC(=O)Cc3ccccc3)ccc2O[C@H]1CN(C)Cc1ccc(Oc2ccccc2)cc1,inactive: 0.989
20,CC(C)NC(=O)Nc1ccc2c(c1)C(=O)N([C@@H](C)CO)C[C@H](C)[C@@H](CN(C)S(C)(=O)=O)OCCCC[C@H](C)O2,inactive: 1.02
21,C[C@H]1CCCCO[C@@H](CN(C)C(=O)c2ccccc2)[C@@H](C)CN([C@@H](C)CO)C(=O)c2cc(NC(=O)C3CCCCC3)ccc2O1,inactive: 0.984

row,Structure (SMILES),relative growth
1,O=C(O)c1cnc[nH]1,inactive: 0.909
2,CO[C@@H]1CN(C)C(=O)c2cc(NS(=O)(=O)CC(F)(F)F)ccc2OC[C@@H](C)N(Cc2nccs2)C[C@H]1C,inactive: 0.997
3,C[C@@H]1CCCCO[C@@H](CN(C)C(=O)Nc2ccccc2)[C@H](C)CN([C@@H](C)CO)C(=O)c2cc(NC(=O)Nc3ccccc3)ccc2O1,inactive: 1.04
4,C[C@@H]1CN([C@@H](C)CO)C(=O)c2cccc(NC(=O)C3CC3)c2O[C@H]1CN(C)C(=O)NC1CCCCC1,inactive: 1
5,Cc1noc(C)c1NC(=O)N(C)C[C@@H]1Oc2ccc(NC(=O)C3CC3)cc2CC(=O)N([C@@H](C)CO)C[C@H]1C,inactive: 0.994
6,CCn1c(-n2nc(C)cc2C)nc2c1c(=O)n(CC(N)=O)c(=O)n2C,inactive: 0.997
7,COc1ccc(NC(=O)Nc2ccc3c(c2)CC(=O)N([C@@H](C)CO)C[C@@H](C)[C@H](CN(C)Cc2ccc(-c4ccccc4)cc2)O3)cc1,inactive: 0.968
8,CC(C)(C)Cc1ccc(OCCCC(=O)O)c(CC(C)(C)C)c1,inactive: 1.04
9,O=C1NC2=C(C(=O)OC2)[C@H](c2ccccc2)N1,inactive: 0.96
10,C[C@@H]1CN([C@H](C)CO)C(=O)Cc2cc(NC(=O)CCC(F)(F)F)ccc2O[C@H]1CN(C)C(=O)Nc1cccc2ccccc12,inactive: 0.991
11,COCC(=O)Nc1ccc2c(c1)C(=O)N(C)C[C@H](OC)[C@@H](C)CN(Cc1ccccc1OC)[C@H](C)CO2,inactive: 0.976
12,O=C(O)Cc1cccc(OCCCN(Cc2cccc(C(F)(F)F)c2Cl)CC(c2ccccc2)c2ccccc2)c1,inactive: 0.937
13,COC(=O)Nc1nc2ccc(S(=O)c3ccccc3)cc2[nH]1 (stereo unspecified),inactive: 0.868
14,Cc1ccc(S(=O)(=O)N(C)C[C@H]2Oc3cc(C#Cc4ccncc4)ccc3S(=O)(=O)N([C@H](C)CO)C[C@@H]2C)cc1,inactive: 1.05
15,C[C@@H]1CN([C@H](C)CO)S(=O)(=O)c2ccc(C#CC(C)(C)O)cc2O[C@H]1CN(C)C(=O)CN(C)C,inactive: 0.988
16,C[C@H](CO)N1C[C@H](C)[C@@H](CN(C)Cc2ccc(Cl)c(Cl)c2)OCCCC[C@H](C)Oc2ccc(NC(=O)Nc3ccccc3)cc2C1=O,inactive: 1.03
17,C[C@@H]1CCCCO[C@@H](CN(C)C(=O)Nc2ccc(C(F)(F)F)cc2)[C@H](C)CN([C@H](C)CO)C(=O)c2cc(NC(=O)NC3CCCCC3)ccc2O1,inactive: 1.02
18,C[C@@H]1CCCCO[C@H](CN(C)S(=O)(=O)c2ccc(F)cc2)[C@@H](C)CN([C@@H](C)CO)C(=O)c2cc(NS(C)(=O)=O)ccc2O1,inactive: 1.01
19,C[C@@H]1CN([C@@H](C)CO)C(=O)c2cc(NS(=O)(=O)c3ccc(F)cc3)ccc2O[C@@H]1CN(C)Cc1ccc(Oc2ccccc2)cc1,inactive: 0.987
20,CC(C)(C)S(=O)N1Cc2cc(C(=O)NCc3ccc4c(c3)OCO4)nc(-c3cccc(C#CCC4CCCC4)c3)c2[C@@H]1CCO (stereo partly specified),inactive: 1.01
